The campaign covered roughly 48,000 compounds. About 120 (0.25%) were called active. Not shown: some 4% with an inconclusive outcome. Calls follow the shape of the dose curve; as a rule, active = well fitted activation curve with a large enough effect; inconclusive = small, poorly fitted or top-dose-only effect, or another doubt; inactive = no such curve, though single readings can be large or run the other way. This is one part of the list.

A short description of this test: Primary qHTS for Identification of Small Molecule Activators of Huntingtin-Antisense Promoter Activity. Also: nearly all actives have a fitted effect of over 55% in size. To be noted: HEK293 HTT-AS promoter firefly luciferase reporter, 24 h; series mostly up to 57.5 µM; activity change, positive = activation: at the top concentration. An outline of the steps:
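Quantitative HTS used concentration series of up to 57.5 uM final on HEK293 luciferase reporter cells, 24 h at 37 degrees C. Readout was Dual-Glo firefly luminescence.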
A general note: qHTS replaces the single test concentration by a dilution series.
`CCCN(CCC)C(=O)Cn1c(=O)n(-c2ccc(CC)cc2)c(=O)c2ccc(C(=O)NCCc3ccccc3)cc21`: the “activity change, positive = activation” value is inactive: -12.2%. As to `CCCCCOc1ccc(Cn2c(=O)oc3ccccc32)cc1`, the “activity change, positive = activation” value was inactive: 0.312%. `COc1cc(Cl)c(NC(=O)CCS(=O)(=O)c2ccc3c(c2)NC(=O)CO3)c(OC)c1`: the “activity change, positive = activation” value was inactive: -1.93%. In the case of `COc1ccc(CCNC(=O)c2ccc3c(c2)CCN3S(=O)(=O)c2ccc(C)cc2)cc1` it was inactive: -35.1%; in that of `CCCOc1ccc(C(=O)OCCN(CC)CC)cc1N`, “inactive”; in that of `CC(C)(C)OC(=O)N1CCC(c2c(C(=O)NC3CCN(Cc4ccccc4)CC3)cnn2-c2ccc(F)cc2F)CC1`, inactive: -6.44%. As for `CCOc1ccc(NC(=O)C(=O)c2cc(C)n(-c3cc(C)cc(C)c3)c2C)cc1`, the figure is inactive: 4.37%; as for `Cc1ccc(NC(=O)C2CCCN(S(=O)(=O)c3ccc4c(c3)oc(=O)n4C)C2)cc1Cl` (centres undefined), inactive: -21.1%. In the case of `COc1ccc(-c2cc(C(=O)NCCc3ccccc3)c3c(-c4ccccc4)[nH]nc3n2)cc1OC`, the “activity change, positive = activation” value is inactive: -0.275%. In the case of `Cc1ccc(-n2nc(CO)c(C(=O)NC(C)CCCc3ccccc3)n2)cc1` (centres undefined) it was inactive: -28.6%; in that of `COc1ccc(NC(=O)c2c(NCc3sccc3C)sc3c2CCCC3)c(OC)c1`, inactive: -13.8%; in that of `CCc1nn2c(=O)cc(COC(=O)CNC(=O)COc3ccc(C)cc3)nc2s1`, inactive: 0.607%. In the case of `CCC(=O)N1CCc2cc(S(=O)(=O)CCC(=O)N3CCN(c4ccc(Cl)cc4)CC3)ccc21` it was inactive: -44%; in that of `CC(C)CC(NS(=O)(=O)c1ccc2c(c1)oc(=O)n2C)C(=O)NCc1ccccc1Cl` (centres undefined), inactive: -14.7%; in that of `CCCOc1ccc(CN(C(=O)Cc2coc3ccc(CC)cc23)C2CCS(=O)(=O)C2)cc1` (centres undefined), inactive: -26.2%. In the case of `CCCn1c(=O)sc2cc(NC(=O)c3ccc(OC)c(Br)c3)ccc21` it was inactive: -29.5%. For the compound `Cc1ccc(NC(=O)CN2CCN(S(=O)(=O)c3ccc(C(C)C)cc3)CC2)cc1F`, the “activity change, positive = activation” value was inactive: -24.7%.

Turning to `COc1ccc(Nc2nc(N)nc(N)c2S(=O)(=O)c2ccccc2)cc1`, the “activity change, positive = activation” value is inactive: -26.1%. In the case of `Cc1cn(C)c(CC(=O)N2CCN(c3cccc(Cl)c3)CC2)c1C(=O)O` it was inactive: -9.46%; in that of `CCOc1ccc(OCC)c(Nc2ccc3cc(S(=O)(=O)N4CCCC4)ccc3n2)c1`, inactive: -13.9%. In the case of `CCC1=Nc2cc(C(=O)NC3CCC(C)CC3)ccc2Sc2ccc(C)cc21` (centres undefined) it was inactive: -35.8%. In the case of `CCC1CN(C(=O)N2CCC(C(=O)NCc3cccc(OC)c3OC)CC2)c2cc(C)ccc2O1` (centres undefined) it was inactive: -24.9%. For the compound `COc1ccccc1NC(=O)c1sc2nc(C)c(C(=O)Nc3ccc(C)cc3C)c(-c3ccco3)c2c1N`, the “activity change, positive = activation” value is inactive: -13.3%. In the case of `O=C(C1CCCN(S(=O)(=O)c2cccc3nsnc23)C1)N1CCN(c2ccccc2F)CC1` (centres undefined) it was inactive: -35.2%; in that of `CCC(C)NC(=O)CSc1nc2n[nH]c(C)c2c(=N)n1-c1cc(Cl)ccc1C` (centres undefined), inactive: -34.2%. In the case of `COc1cccc(-c2noc(C3CC(=O)N(c4ccc(F)cc4)C3)n2)c1OC` (centres undefined) it was inactive: -1.93%. As for `COc1ccccc1CNC(=O)c1cc2sccc2n1Cc1ccc(Cl)cc1`, the figure is inactive: -18.2%. Consider `COc1ccc(NC(=O)CSc2ccc3nc(-c4ccccc4)cn3n2)c(OC)c1`, for which the “activity change, positive = activation” value was inactive: -88.4%.

For `CCc1ccc(NC(=O)CCn2c(=O)c3cccn3c3ccccc32)cc1`, the “activity change, positive = activation” value was inactive: -28%. In the case of `Cc1ccccc1NC(=O)CSc1nc2ccc(NC(=O)c3cccs3)cc2s1` it was inactive: -7.68%; in that of `Cc1ccc(NC(=O)c2ccc3[nH]c(C)cc(=O)c3c2)cc1`, inactive: -9.36%. As for `CC(C)(O)Cn1c(NC(=O)c2ccc(-c3cn[nH]c3)s2)nc2cc(CN3CCOCC3)ccc21`, the figure is inactive: -42.7%; as for `CCOc1ccc(S(=O)(=O)Nc2cccc(-c3ccc(OCC)nn3)c2)cc1`, inactive: -51.1%; as for `COc1ccccc1CCNC(=O)C(=O)NCC(c1cccs1)S(=O)(=O)c1cccs1` (centres undefined), inactive: -37.4%. As for `Cc1ccc(/C=C/c2onc(C)c2S(=O)(=O)N2CCC(C(=O)Nc3cc(C)ccc3C)CC2)cc1`, the figure is inactive: -7.12%; as for `COc1ccc(S(=O)(=O)c2cn(C)c3ccc(C)cc3c2=O)cc1`, inactive: 0.337%; as for `O=C(Nc1ccc(F)cc1C(F)(F)F)C1CCN(c2ncccn2)CC1`, inactive: -3.99%. On to `Cc1cccc(NC(=O)c2c(C)cc(C)nc2SCC(=O)c2ccccc2)c1`, for which the “activity change, positive = activation” value was inactive: -11.4%. Take `Cc1cc(C)c2oc(C(=O)Nc3ccc(S(=O)(=O)N4CCCCCC4)cc3)cc(=O)c2c1`: the “activity change, positive = activation” value is inactive: -4.65%. As for `O=C(Nc1ccc(S(=O)(=O)N2CCCCC2c2cccnc2)cc1)c1ccc(Br)cc1` (centres undefined), the figure is inactive: -61.4%. As for `Cc1cccc(NC(=O)COC(=O)CCCC2=NS(=O)(=O)c3ccccc3N2)c1`, the figure is inactive: -6.84%; as for `COc1cccc(NC(=O)Cn2c(=O)cc(C)c3c(C)nn(-c4cccc(F)c4)c32)c1`, inactive: 16.2%.

With `Oc1cccc(-c2nc(N3CCOCC3)c3oc4ncccc4c3n2)c1`, the “activity change, positive = activation” value was inactive: -19.2% [at 116 µM, percent change from vehicle, -100% = no light]. In the case of `CC1CCCCN1C(=O)Cn1c(=O)n(-c2ccc(Cl)cc2)c(=O)c2c3c(sc21)CCC3` (centres undefined) it was inactive: -21.5%. As for `CCN1CCN(C(c2ccc(OC)cc2)c2c(O)cc(C)n(Cc3ccco3)c2=O)CC1` (centres undefined), the figure is inactive: 13.4%; as for `COc1ccc(CNC(=O)c2ccc(NC(=O)N3CC4CCCN4c4ccccc43)cc2)cc1` (centres undefined), inactive: -22.2%; as for `COc1cccc(NC(=O)C2CCN(S(=O)(=O)c3cccc4nonc34)CC2)c1`, inactive: -12.5%.

For `Cc1ccc(-n2ncc(C(=O)NCCc3ccccc3)c2C2CCN(C(=O)OC(C)(C)C)CC2)c(C)c1`, the “activity change, positive = activation” value is inactive: -18.3%.

With `CCOc1cc2c(c(F)c1OCC)C(=N)N(CC(=O)c1cc(N3CCOCC3)c(OC)c(C(C)(C)C)c1)C2`, the “activity change, positive = activation” value was inactive: -30.5%. Consider `COC(=O)c1ccc(NC(=O)CSc2nc(C)cc(C)c2C(=O)Nc2ccccc2)cc1`, for which the “activity change, positive = activation” value is inactive: -22.6%. As for `Cc1nc(-c2ccc(S(=O)(=O)Nc3ccc(C#N)cc3)cc2)co1`, the figure is inactive: -31.2%. Consider `COc1cc(NS(=O)(=O)c2cnc(N)nc2)cc(OC)c1`, for which the “activity change, positive = activation” value was inactive: -13.3%. As for `CCOc1ccc(/C=C/C(=O)Nc2sc3c(c2C(=O)OC)C(C(=O)OC)CC3)cc1` (centres undefined), the figure is inactive: -9.7%; as for `COc1cc(C(=O)OCc2cc(=O)n3nc(C4CCCCC4)sc3n2)cc(OC)c1OC`, inactive: -6.19%; as for `CCOC(=O)c1cc(C)n(CC2CCC(C(=O)Nc3ccc(C(C)=O)cc3)CC2)c1C` (centres undefined), inactive: -25.3%. As for `COc1cc2cc(CNc3ccccc3)c(=O)n(CC(=O)Nc3ccccc3)c2cc1OC`, the figure is inactive: -9.73%. In the case of `COc1ccc(N2CCN(C(=O)c3cccc(-n4c(C)nc5cccnc54)c3)CC2)cc1` it was inactive: -21.9%. For `CCc1cccc(NC(=O)c2cn3c4c(ccc(Cl)c4c2=O)OC(C)C3)c1` (centres undefined), the “activity change, positive = activation” value is inactive: -15.5%. In the case of `CCCNS(=O)(=O)c1ccc2nc(NC(=O)c3ccc(F)cc3)sc2c1` it was inactive: -11.6%.

For the origin of these results see PubChem BioAssay AID1508624 (National Center for Advancing Translational Sciences (NCATS), 2021).
